Data published in PubChem BioAssay AID504333 (National Center for Advancing Translational Sciences (NCATS), 2011).
Screen size: about 360,000 compounds; about 16,000 (4.4%) were called active. The inconclusive results got no clear call from the source; some entries with a clear call stand among them for comparison. Calls follow the shape of the dose curve; as a rule, active = well fitted inhibition curve with a large enough effect; inconclusive = small, poorly fitted or top-dose-only effect; inactive = no such curve, though single readings can be large or run the other way. Where the call is inconclusive, the potency comes from a doubtful curve fit.

Each compound was assayed against Bromodomain adjacent to zinc finger domain protein 2B (Homo sapiens) (UniProt Q9UIF8) (assay: qHTS Assay for Inhibitors of BAZ2B). Details: AlphaScreen BAZ2B-H3K14Ac peptide displacement; series mostly up to 114 µM.
Sequence of UniProt Q9UIF8 (Q9UIF8 whole entry, looked up, the tested form may be a part): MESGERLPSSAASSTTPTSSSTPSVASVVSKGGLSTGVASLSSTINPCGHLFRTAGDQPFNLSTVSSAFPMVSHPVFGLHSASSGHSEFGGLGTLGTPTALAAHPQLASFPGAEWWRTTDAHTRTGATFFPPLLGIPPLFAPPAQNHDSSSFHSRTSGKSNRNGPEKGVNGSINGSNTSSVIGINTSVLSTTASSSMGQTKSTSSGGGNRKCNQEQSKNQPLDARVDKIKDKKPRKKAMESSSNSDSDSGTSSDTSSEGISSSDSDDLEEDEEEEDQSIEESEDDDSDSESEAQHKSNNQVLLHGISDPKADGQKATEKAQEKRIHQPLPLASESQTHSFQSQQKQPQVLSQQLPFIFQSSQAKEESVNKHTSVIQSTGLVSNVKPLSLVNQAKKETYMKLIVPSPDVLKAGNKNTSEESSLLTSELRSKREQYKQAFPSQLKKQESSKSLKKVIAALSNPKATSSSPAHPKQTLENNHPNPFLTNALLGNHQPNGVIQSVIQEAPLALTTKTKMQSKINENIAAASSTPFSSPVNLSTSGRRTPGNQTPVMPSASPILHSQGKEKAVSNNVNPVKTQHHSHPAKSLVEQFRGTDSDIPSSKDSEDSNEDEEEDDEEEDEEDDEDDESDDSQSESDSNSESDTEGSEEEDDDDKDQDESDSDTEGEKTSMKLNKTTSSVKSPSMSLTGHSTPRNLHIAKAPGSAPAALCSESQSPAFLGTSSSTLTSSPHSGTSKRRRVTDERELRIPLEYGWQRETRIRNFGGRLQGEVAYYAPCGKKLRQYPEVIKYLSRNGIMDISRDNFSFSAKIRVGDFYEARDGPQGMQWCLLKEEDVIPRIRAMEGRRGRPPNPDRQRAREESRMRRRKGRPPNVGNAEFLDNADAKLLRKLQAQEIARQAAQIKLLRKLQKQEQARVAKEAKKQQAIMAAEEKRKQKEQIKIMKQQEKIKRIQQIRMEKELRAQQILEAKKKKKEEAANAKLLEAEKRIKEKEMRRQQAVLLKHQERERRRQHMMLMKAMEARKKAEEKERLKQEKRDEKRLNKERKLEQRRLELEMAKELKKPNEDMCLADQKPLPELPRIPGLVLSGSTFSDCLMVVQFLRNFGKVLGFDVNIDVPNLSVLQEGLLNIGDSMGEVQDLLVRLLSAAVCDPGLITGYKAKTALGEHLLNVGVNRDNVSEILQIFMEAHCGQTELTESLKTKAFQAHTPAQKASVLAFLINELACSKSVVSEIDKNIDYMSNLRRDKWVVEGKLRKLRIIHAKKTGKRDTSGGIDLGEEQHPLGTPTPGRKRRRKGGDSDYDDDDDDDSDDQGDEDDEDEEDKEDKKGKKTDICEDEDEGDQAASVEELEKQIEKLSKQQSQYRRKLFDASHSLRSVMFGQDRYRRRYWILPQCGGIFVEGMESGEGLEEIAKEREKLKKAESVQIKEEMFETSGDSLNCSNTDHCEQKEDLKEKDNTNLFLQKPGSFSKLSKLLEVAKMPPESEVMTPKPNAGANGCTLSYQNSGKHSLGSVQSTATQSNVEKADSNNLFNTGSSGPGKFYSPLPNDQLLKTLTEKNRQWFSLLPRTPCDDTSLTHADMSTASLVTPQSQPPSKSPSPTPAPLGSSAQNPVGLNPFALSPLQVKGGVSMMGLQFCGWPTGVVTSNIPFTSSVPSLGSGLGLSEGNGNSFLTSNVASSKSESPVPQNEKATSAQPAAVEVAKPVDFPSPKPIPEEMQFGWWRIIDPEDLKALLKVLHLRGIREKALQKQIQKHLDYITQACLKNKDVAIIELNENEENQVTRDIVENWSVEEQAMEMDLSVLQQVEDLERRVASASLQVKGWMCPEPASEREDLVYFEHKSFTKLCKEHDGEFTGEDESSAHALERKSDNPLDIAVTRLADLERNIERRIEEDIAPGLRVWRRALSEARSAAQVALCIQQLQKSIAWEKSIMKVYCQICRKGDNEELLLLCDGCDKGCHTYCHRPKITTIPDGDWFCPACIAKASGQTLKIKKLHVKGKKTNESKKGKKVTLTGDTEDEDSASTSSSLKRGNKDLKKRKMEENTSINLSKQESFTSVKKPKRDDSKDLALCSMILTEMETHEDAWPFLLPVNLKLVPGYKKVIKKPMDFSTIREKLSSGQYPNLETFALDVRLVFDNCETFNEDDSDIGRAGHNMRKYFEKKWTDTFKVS
Source text: BAZ2B (bromodomain adjacent to zinc finger domain, 2B) belongs to a family of ubiquitously expressed bromodomain containing proteins, which biological function has not yet been elucidated. […] The interaction of BAZ2B with ISWI mediated by the BAZ1 motif has recently been described. […] The protocol is based on the AlphaScreen (PerkinElmer) displacement assay developed by NCGC [5], but uses the peptide ligand Biot-H3K14Ac, a high affinity binding partner for BAZ2B, in an AlphaScreen format. Although AlphaScreen has significant advantages with its utility in a variety of epigenetic target assays, the primary screening data provided in this deposition should be used with caution due to the prevalence of screening artifacts. The top compound concentration tested was 110uM in this assay, which increases number of actives and potential artifacts. An AlphaScreen counterscreen is highly recommended to be run against any putative actives to eliminate non-specific artifacts. Alternatively, one can use other AlphaScreen assays in PubChem to filter out promiscuous hits. Eberharter, A. et al. ACF1 improves the effectiveness of nucleosome mobilization by ISWI through PHD-histone contacts. The EMBO journal 23, 4029-4039. 2004. PMID: 15457208 [2] Jones, M.H. et al. A novel family of bromodomain genes. Genomics 63, 40-45. 2000. PMID: 10662543 [3] Yasgar, et al. Compound Management for Quantitative High-Throughput Screening. JALA. 2008 Apr;13(2):79-89. PMID: 18496600 [4] Inglese, et al. Quantitative high-throughput screening: a titration-based approach that efficiently identifies biological activities in large chemical libraries. Proc Natl Acad Sci. 1;103(31):11473-8. 2006. PMID: 16864780 [5] Quinn et al. A chemiluminescence-based method for identification of histone lysine methyltransferase inhibitors. Mol Biosyst 6(5): 782-8. 2010. PMID: 20567762 [6] Baell,Holloway. New substructure filters for removal of pan assay interference compounds (PAINS) from screening libraries and for their exclusion in bioassays. J Med Chem. 53(7):2719-40. 2010. PMID: 20131845 NIH Molecular Libraries Probe Production Network [MLPCN] NIH Chemical Genomics Center [NCGC] Structural Genomics Consortium (SGC) NIH Grant: 5U54 MH084681-02
To each well of a 1,536w plate, 2ul of BAZ2B protein (final 50nM) and 1ul biotinylated histone peptide acetylated at Lys14 [b-H3(5-23)K14Ac] (final 50nM) were added in 1x PBS buffer, pH 7.4, containing 0.01% Tween-20, using a nanoliter dispenser. Formation of a protein-peptide complex proceeded at room temperature for 30 min. A Kalypsys pin-tool was employed to transfer 23 nL of library compound solution in DMSO to each well. Following a 30 min incubation of the protein-peptide complex with compounds at room temperature, a mixture of 40 ug/mL each streptavidin-coated donor and nickel chelate acceptor AlphaScreen beads (final 10 ug/mL) were added in a 1ul dispense for a final volume of 4ul. A brief centrifugation followed (1000rpm, 1 min) and were then incubated protected from the light for 20 min at room temperature. Plates were read on an EnVision multilabel plate reader using the 1,536 plate HTS AlphaScreen aperture (excitation time 80 ms, measurement time 240 ms).
Also: nearly all actives have a fitted effect of over 60% in size.
Potency is read from the fitted curve at half-maximal effect; tags tell the direction and shape of the fitted curve.

Row | Structure (SMILES) | Potency
1 | CCN1CCN(CCCOc2ccc(Cl)cc2Br)CC1 | active: 20 µM
2 | CC1CC1C(=O)Nc1nc(-c2ccccn2)cs1 (stereo not drawn) | inconclusive: 89.1 µM [inhibitor, single point]
3 | O=C(N/N=C/c1ccc2c(c1)OCO2)c1sc2cccc(Cl)c2c1Cl | inactive
4 | COc1ccc(/C=C2/C(=O)N(c3cccc(F)c3)N=C2C)c(OC)c1 | inconclusive: 5.62 µM [inhibitor, full curve, poor fit]
5 | COc1ccc(C(C)C)cc1S(=O)(=O)NCCc1c(C)[nH]c2ccc(C)cc12 | inconclusive: 35.5 µM [inhibitor, partial curve]
6 | CCn1c(SCC(=O)NC(=O)NC(C)(C)C)nc2ccccc21 | inactive
7 | O=C(CC(SCc1ccco1)c1ccc(O)cc1)c1cccs1 (stereo not drawn) | inconclusive: 79.4 µM [inhibitor, single point]
8 | COc1ccc(/C=N/Nc2ccccc2C(=O)O)cc1Cn1cc([N+](=O)[O-])cn1 | active: 50.1 µM
9 | CCOc1ccccc1-c1c2cc(O)c(=O)cc-2oc2cc(O)c(O)cc12 | active: 7.08 µM
10 | CC(=O)N(C)/C=C1\Sc2ccccc2C1=O | inactive
11 | COC(=O)c1ccc(N=NN2CCCCCC2)cc1 | inactive
12 | COc1ccc(Nc2cc(O)c3ncccc3c2)cc1 | active: 28.2 µM
13 | Cn1c2cc(Br)sc2c2cnn(Cc3c(F)cccc3Cl)c(=O)c21 | inconclusive: 89.1 µM [inhibitor, single point]
14 | COc1cccc(C2C(C(=O)Nc3ccc(C)cc3C)=C(C)Nc3c(C(=O)Nc4cccc(C)c4)cnn32)c1OC (stereo not drawn) | inactive
15 | COc1ccc(OC)c(S(=O)(=O)Nc2ccc(O)c(Sc3ncn[nH]3)c2)c1 | inconclusive: 89.1 µM [inhibitor, single point]
16 | Cc1cccc(N=Nc2ccc(O)c3ncccc23)c1 | active: 8.91 µM
17 | COc1cccc(-c2c(C(=O)N/N=C/C3CC=CCC3)nnn2-c2nonc2N)c1 (stereo not drawn) | inconclusive: 89.1 µM [inhibitor, single point]
18 | CCc1c(C)nc2nc(SCc3ccccc3Cl)[nH]n2c1=O | inconclusive: 89.1 µM [inhibitor, single point]
19 | Clc1ccc(CNc2ccc(N3CCN(Cc4ccccc4)CC3)cc2)cc1 | active: 5.62 µM
20 | CCCNC(=O)c1ccc(N2CCC3(CC2)CC(c2ccccc2)=NO3)c([N+](=O)[O-])c1 | inconclusive: 44.7 µM [inhibitor, partial curve]
21 | Cc1cccc(/C=C2/Sc3ccc(C(=O)NCCCN4CCOCC4)cc3NC2=O)c1 | inconclusive: 63.1 µM [inhibitor, partial curve, poor fit]
22 | Cc1c(NC(=O)/C(C#N)=C/c2ccc(-c3cc(Cl)ccc3Cl)o2)c(=O)n(-c2ccccc2)n1C | inconclusive: 39.8 µM [inhibitor, full curve]
23 | Cc1c2cnn(CC(=O)Nc3cccc(C(F)(F)F)c3)c(=O)c2c(C)n1Cc1ccccc1Cl | inactive
24 | Cc1ccc(NC(=O)[C@H](CC(C)C)NC(=O)[C@@H]2Cc3ccccc3CN2)cc1 | inconclusive: 79.4 µM [inhibitor, single point]

Row | Structure (SMILES) | Potency
25 | CCOC(=O)c1c(=O)n(O)c2ccc(OC)cc2[n+]1[O-] | inconclusive: 89.1 µM [inhibitor, single point]
26 | CCCCCCn1c(SCCCC)nc2c1c(=O)[nH]c(=O)n2C | inactive
27 | CC(C)Cn1[nH]c2c3c(ccc2c1=O)C(=O)c1ccccc1C3=O | active: 10 µM
28 | CCCc1ccc(OCC(O)CN2CCN(c3ccccn3)CC2)cc1 (stereo not drawn) | inconclusive: 50.1 µM [inhibitor, partial curve]
29 | CCCC(CCC)C(=O)Nc1ccc2c(c1)N(C(=O)CCN1CCN(C)CC1)c1ccccc1CC2 | inconclusive: 79.4 µM [inhibitor, single point]
30 | CN1CCN(S(=O)(=O)c2ccc(SCCOc3ccc(Cl)cc3)nc2)CC1 | inconclusive: 70.8 µM [inhibitor, single point]
31 | O=c1c2c3n(c(=S)nc2[nH]n1-c1ccccc1)CCCCC3 | inconclusive: 35.5 µM [inhibitor, single point]
32 | Oc1c(Br)cc2oc3c(c2c1CNCc1ccccc1)CCCC3 | inconclusive: 14.1 µM [inhibitor, single point]
33 | CN(C)S(=O)(=O)c1cccc(-c2csc(N/N=C/c3ccco3)n2)c1 | active: 35.5 µM
34 | CCN(CCNC(=O)C1CCN(S(=O)(=O)c2cccc3nsnc23)CC1)c1ccccc1 | inconclusive: 50.1 µM [inhibitor, partial curve]
35 | CCn1c(C)c(C(C)=O)c(N2CCN(c3ccccc3)CC2)nc1=S | inactive
36 | Cc1ccc2cc(CN(CCCO)S(=O)(=O)c3cccc4nsnc34)c(=O)[nH]c2c1 | inactive
37 | Cc1cc(Cn2nc(C(=O)NCC3CC3)cc2-c2ccccc2)on1 | inactive
38 | CCC(C)(C)c1ccc(Oc2ccc(N)cc2)cc1 | inconclusive: 44.7 µM [inhibitor, partial curve]
39 | O=C(NCCc1cccc(Cl)c1)c1ccc(OC2CCN(Cc3ccccn3)CC2)cc1 | inconclusive: 12.6 µM [inhibitor, partial curve]
40 | O=C(COC(=O)c1ccco1)c1ccc2ccccc2c1 | inactive
41 | COc1ccc(N2CCN(CC(=O)Nc3ccccc3C(=O)NCc3ccccc3)CC2)cc1 | active: 44.7 µM
42 | CCCNC(=O)C(Cc1ccccc1)NC(=O)Cc1ccccc1 (stereo not drawn) | inactive
43 | CC(C)[C@H](NC(=O)[C@@H]1Cc2ccccc2CN1)C(=O)Nc1ccc2c(c1)OCCO2 | inactive
44 | CCN(C(=O)CN1CCN(C)CC1)c1cccc2ccccc12 | active: 31.6 µM
45 | COc1ccc(CCN(C)CC(O)c2ccccc2)cc1OC (stereo not drawn) | inconclusive: 79.4 µM [inhibitor, single point]
46 | O=c1cc(O)c2sc3nc(-c4cccnc4)cc(C(F)(F)F)c3c2[nH]1 | active: 56.2 µM
47 | CCN(CC)c1ccc(/C=N\N2CCN(Cc3ccc(C)cc3)CC2)cc1 | active: 17.8 µM
48 | CCN(CC)S(=O)(=O)c1cc(-c2onc(C)c2C)ccc1OC | inactive
